Source: publication PMC12820563
This is one part of the list. The list includes weakly bound sequences.

Each sequence was assayed against T1, MBP-FoxP3dN (UniProt Q99JB6) (assay: PD-seq (MBP pull-down with sequencing)). Conditions: 20 mM Tris-HCl pH 7.5, 100 mM NaCl, 1.5 mM MgCl2, 0.4 uM protein, 0.1 uM dsDNA library, 30 min, room temperature, amylose pull-down; high values mean tight binding; double strand, one strand shown.
T1 sequence: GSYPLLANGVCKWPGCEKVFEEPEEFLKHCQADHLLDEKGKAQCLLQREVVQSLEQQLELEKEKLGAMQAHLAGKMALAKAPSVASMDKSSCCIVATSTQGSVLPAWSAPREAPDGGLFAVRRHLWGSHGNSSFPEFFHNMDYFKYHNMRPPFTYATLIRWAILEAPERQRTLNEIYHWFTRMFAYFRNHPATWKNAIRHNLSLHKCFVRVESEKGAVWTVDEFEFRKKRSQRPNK

| Sequence | binding signal (RPM ratio (pull-down/input)) |
| --- | --- |
| GATGATTGTTCTCCCAGCTGATGAATTTTCCCCGTCGAGTAAACAAATTTTCCTAATCTTTCTGTTCAAGCGCCATCTAC | 0.175 |
| GATGATTGTTCTCCCAGCTGATGAATTTCTATGCTCGAGTAAACAAATTTTCCTAATCTTTCTGTTCAAGCGCCATCTAC | 0.385 |
| GATGATTGTTCTCCCAGCTGATGAATTTGTCAGTTCGAGTAAACAAATTTTCCTAATCTTTCTGTTCAAGCGCCATCTAC | 2.89 |
| GATGATTGTTCTCCCAGCTGATGAATTGCGTGCCTCGAGTAAACAAATTTTCCTAATCTTTCTGTTCAAGCGCCATCTAC | 2.06 |
| GATGATTGTTCTCCCAGCTGATGAATTTTTATGCTCGAGTAAACAAATTTTCCTAATCTTTCTGTTCAAGCGCCATCTAC | 0.454 |
| GATGATTGTTCTCCCAGCTGATGAATTGCTTCCTTCGAGTAAACAAATTTTCCTAATCTTTCTGTTCAAGCGCCATCTAC | 0.578 |
| GATGATTGTTCTCCCAGCTGATGAATTACGTCGCTCGAGTAAACAAATTTTCCTAATCTTTCTGTTCAAGCGCCATCTAC | 0.512 |
| GATGATTGTTCTCCCAGCTGATGAATTCATCGGATCGAGTAAACAAATTTTCCTAATCTTTCTGTTCAAGCGCCATCTAC | 0.235 |
| GATGATTGTTCTCCCAGCTGATGAATTCTACTTGTCGAGTAAACAAATTTTCCTAATCTTTCTGTTCAAGCGCCATCTAC | 0.783 |
| GATGATTGTTCTCCCAGCTGATGAATTTGCAACATCGAGTAAACAAATTTTCCTAATCTTTCTGTTCAAGCGCCATCTAC | 5.28 |
| GATGATTGTTCTCCCAGCTGATGAATTGAGCGCCTCGAGTAAACAAATTTTCCTAATCTTTCTGTTCAAGCGCCATCTAC | 1.18 |
| GATGATTGTTCTCCCAGCTGATGAATTGATCCTATCGAGTAAACAAATTTTCCTAATCTTTCTGTTCAAGCGCCATCTAC | 0.403 |
| GATGATTGTTCTCCCAGCTGATGAATTTGATATTTCGAGTAAACAAATTTTCCTAATCTTTCTGTTCAAGCGCCATCTAC | 4.48 |
| GATGATTGTTCTCCCAGCTGATGAATTCTCTTTATCGAGTAAACAAATTTTCCTAATCTTTCTGTTCAAGCGCCATCTAC | 0.763 |
| GATGATTGTTCTCCCAGCTGATGAATTGGGGGAATCGAGTAAACAAATTTTCCTAATCTTTCTGTTCAAGCGCCATCTAC | 0.299 |
| GATGATTGTTCTCCCAGCTGATGAATTCCCTCGTTCGAGTAAACAAATTTTCCTAATCTTTCTGTTCAAGCGCCATCTAC | 0.294 |

| Sequence | binding signal (RPM ratio (pull-down/input)) |
| --- | --- |
| GATGATTGTTCTCCCAGCTGATGAATTCGCAAATTCGAGTAAACAAATTTTCCTAATCTTTCTGTTCAAGCGCCATCTAC | 0.359 |
| GATGATTGTTCTCCCAGCTGATGAATTTTGCTCATCGAGTAAACAAATTTTCCTAATCTTTCTGTTCAAGCGCCATCTAC | 0.551 |
| GATGATTGTTCTCCCAGCTGATGAATTCTAAAGGTCGAGTAAACAAATTTTCCTAATCTTTCTGTTCAAGCGCCATCTAC | 0.2 |
| GATGATTGTTCTCCCAGCTGATGAATTCCCTATGTCGAGTAAACAAATTTTCCTAATCTTTCTGTTCAAGCGCCATCTAC | 0.282 |
| GATGATTGTTCTCCCAGCTGATGAATTTAACCCGTCGAGTAAACAAATTTTCCTAATCTTTCTGTTCAAGCGCCATCTAC | 0.274 |
| GATGATTGTTCTCCCAGCTGATGAATTGTTTCCATCGAGTAAACAAATTTTCCTAATCTTTCTGTTCAAGCGCCATCTAC | 1.14 |
| GATGATTGTTCTCCCAGCTGATGAATTATTCGCATCGAGTAAACAAATTTTCCTAATCTTTCTGTTCAAGCGCCATCTAC | 1.12 |
| GATGATTGTTCTCCCAGCTGATGAATTCTTTGTTTCGAGTAAACAAATTTTCCTAATCTTTCTGTTCAAGCGCCATCTAC | 0.575 |
| GATGATTGTTCTCCCAGCTGATGAATTCGCAGCATCGAGTAAACAAATTTTCCTAATCTTTCTGTTCAAGCGCCATCTAC | 1.05 |
| GATGATTGTTCTCCCAGCTGATGAATTGAAACTTTCGAGTAAACAAATTTTCCTAATCTTTCTGTTCAAGCGCCATCTAC | 0.34 |
| GATGATTGTTCTCCCAGCTGATGAATTACAGCTGTCGAGTAAACAAATTTTCCTAATCTTTCTGTTCAAGCGCCATCTAC | 0.442 |
| GATGATTGTTCTCCCAGCTGATGAATTCAAGTTCTCGAGTAAACAAATTTTCCTAATCTTTCTGTTCAAGCGCCATCTAC | 0.403 |
| GATGATTGTTCTCCCAGCTGATGAATTTGATTTTTCGAGTAAACAAATTTTCCTAATCTTTCTGTTCAAGCGCCATCTAC | 2.9 |
| GATGATTGTTCTCCCAGCTGATGAATTTAGTTCGTCGAGTAAACAAATTTTCCTAATCTTTCTGTTCAAGCGCCATCTAC | 1.06 |
| GATGATTGTTCTCCCAGCTGATGAATTGTAACTATCGAGTAAACAAATTTTCCTAATCTTTCTGTTCAAGCGCCATCTAC | 1.17 |
| GATGATTGTTCTCCCAGCTGATGAATTCCTTGCCTCGAGTAAACAAATTTTCCTAATCTTTCTGTTCAAGCGCCATCTAC | 0.36 |
